Laboratory results from PubChem BioAssay AID1508624 (National Center for Advancing Translational Sciences (NCATS), 2021).
The whole screen tested about 48,000 compounds, of which about 120 (0.25%) were called active. Roughly 4% stayed inconclusive and do not appear here. Calls follow the shape of the dose curve; as a rule, active = well fitted activation curve with a large enough effect; inconclusive = small, poorly fitted or top-dose-only effect, or another doubt; inactive = no such curve, though single readings can be large or run the other way. The list shows a part of the results.

experiment: Primary qHTS for Identification of Small Molecule Activators of Huntingtin-Antisense Promoter Activity; settings: HEK293 HTT-AS promoter firefly luciferase reporter, 24 h; series mostly up to 57.5 µM; activity change, positive = activation: at the top concentration; also: nearly all actives have a fitted effect of over 55% in size
In short: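 Firefly luciferase readout (Dual-Glo, 10 min RT) after 24 h, 37 °C compound exposure (final up to 57.5 uM) of HEK293 reporter cells cultured 24 h beforehand; PTC124 at 50 uM final as control inhibitor; activity scaled vehicle 0%, zero RLU -100%.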

Activity change, positive = activation, inactive:
CCOc1ccc(C2C(C(=O)Nc3ccccc3)=C(C)Nc3nc(SCc4cccc(OC)c4)nn32)cc1 (centres undefined) 4.14%
O=C(NCc1ccccc1)c1nc(S(=O)(=O)Cc2ccc(F)cc2)ncc1Cl -85.7%
Cc1ccc(/C=C/c2onc(C)c2S(=O)(=O)N2CCC(C(=O)N3CCN(c4cccc(C)c4)C(C)C3)CC2)cc1 (centres undefined) -26.9%
CC(C)CCOc1ccc(C2N=C(N)Nc3nc4ccccc4n32)cc1 (centres undefined) -23.9%
CCc1ccc(OCc2nc(-c3ccc(-n4cccc4)cc3)no2)cc1 1.37%
CCc1nc(-c2cc(S(=O)(=O)N3CCN(c4ccc(OC)cc4)CC3)ccc2OC)no1 -12.5%
C=CC(=O)Nc1ccc2ncnc(Nc3ccc(OCc4cccc(F)c4)c(Cl)c3)c2c1 -28.1%
CCOc1ccc(-c2cn3c(n2)sc2cc(C(=O)NCCc4ccc(OC)cc4OC)ccc23)cc1 -12.6%
O=S(=O)(NCCc1csc2nc(-c3ccccc3)nn12)c1cccs1 -32%
Cc1ccc(OCc2nc(-c3ccc(C(=O)NCCc4ccc(Cl)cc4)cc3)oc2C)cc1 2.43%
Cc1ccc(NC(=O)CN2C(=O)CCc3ccccc32)cc1C -17.6%
COc1ccc(NC(=O)c2nn(C)c3c2CS(=O)(=O)c2ccccc2-3)cc1Cl -14.7%
Cc1ccccc1CN1C(=O)c2ccccc2Sc2ccc(C(=O)NC3CCCCC3)cc21 -8.18%
COc1ccc(N(CC(=O)NC(C)c2ccccc2)S(=O)(=O)c2c(C)nn(C)c2C)cc1 (centres undefined) -14%
COc1ccc(N2CCN(Cc3nc4c(c(=O)[nH]c(=O)n4C)n3Cc3ccc(C)cc3)CC2)cc1 -19.3%
CCOC(=O)c1c(C)[nH]c(C)c1S(=O)(=O)N1CCCC(C(=O)N2CCN(c3ccccc3F)CC2)C1 (centres undefined) 0%
CCc1nn(CC(=O)N2CCN(c3cccc(OC)c3)CC2)c(=O)c2cc3occc3n12 -5.25%
CCCSc1oc(-c2ccco2)nc1S(=O)(=O)c1ccc(Br)cc1 -18%
COCCCNC(=O)Cn1nc(N2CCN(c3ccccc3)CC2)ccc1=O -14.6%
Cn1c(-n2cccc2)c(-c2c(-c3ccc(F)cc3)[nH]c3c2c(=O)n(C)c(=O)n3C)c(=O)n(C)c1=O -6.45%
COCCn1ccc2c(OCC(=O)Nc3c(C)cc(C)cc3C)cccc2c1=O -14.6%
Cc1ccc(S(=O)(=O)n2nc(-c3ccc(Cl)cc3)nc2NCc2ccccc2)cc1 -2.18%
CN(C)CC/C=C1\c2ccccc2COc2ccccc21 -14.4%
CC1CCc2c(sc3nnn(Cc4cccc(C(=O)OC(C)C)c4)c(=O)c23)C1 (centres undefined) -2.91%
CC(=O)N1CCc2c(sc3c2c(=O)n(-c2ccc(F)cc2)c(=O)n3Cc2ccc(C#N)cc2)C1 -10.8%
CCOc1ccccc1CNC(=O)C1CCN(S(=O)(=O)c2c(C)noc2/C=C/c2ccccc2F)CC1 12.4%
CCn1c(C(=O)NCc2ccccc2OC)cc2sccc21 2.76%
COc1ccc(CC(=O)Nc2cc(-c3cn4cccnc4n3)ccc2C)cc1OC -36.8%
CC1=C(c2ccc(C(C)C)cc2)S(=O)(=O)N=C1N1CCC(C(=O)NCc2ccccc2)CC1 -19.8%
COc1ccc(-n2ccnc(NCc3cccs3)c2=O)cc1OC -12.9%
O=S(c1cc(Cl)cc(Cl)c1O)c1cc(Cl)cc(Cl)c1O -4.76%
CC(Oc1c(Cl)cccc1Cl)C1=NCCN1 (centres undefined) -2.27%
COc1cccc2c1cc1c(=O)n(CC(=O)N3CCN(c4cccc(C(F)(F)F)c4)CC3)nc(C)n12 -19.9%
CCOc1ccccc1NC(=O)C(CC(C)C)NC(=O)C1CCC(C)CC1 (centres undefined) -18.9%
CCCCN(CC)C(=O)CSc1nc2n[nH]c(C)c2c(=N)n1-c1cccc(C)c1 -49.9%
O=C(COc1ccccc1Cl)Nc1nnc(S(=O)(=O)N2CCCC2)s1 -6.78%
Cc1ccc(NC(=O)CCc2c(C)nn(-c3ccc(N4CCOCC4)nn3)c2C)c(C)c1 -6.64%
COc1ccc(-n2nc3ccc(NC(=O)c4ccc(C#N)cc4F)cc3n2)cc1Cl 5.9%
O=C(Nc1cccc(C(F)(F)F)c1)c1cc(-c2ccc(Cl)s2)nc2ccccc12 -11.3%
O=C(O)Cn1c(-c2cccs2)cc2cc(Cl)ccc21 -5.93%
COc1ccc(Cn2c(CO)cnc2SCC(=O)Nc2ccc3c(c2)OCCO3)cc1 -7.98%
COc1cccc(COC(=O)c2ccc(-c3nnn(Cc4cccc(OC)c4)n3)cc2)c1 8.17%
CCOc1ccc(NC2SC(=O)N(Cc3ccccc3)C2=O)cc1 (centres undefined) -5.95%
COc1cccc2sc(NC(=O)CS(=O)(=O)c3ccc(C)cc3)nc12 -10.8%
O=c1[nH]c(=O)n([C@H]2C[C@@H](O)[C@@H](CO)O2)cc1C(F)(F)F -19.5%
CC(C)Oc1ccc(CNC(=O)c2ccc3nc(SCc4ccc(F)cc4)n(C)c3c2)cc1 -20.3%
Cc1ccccc1Cn1c(C)c(CNCc2ccccc2)c(C(=O)O)c1C -10.9%
CC(NC(=O)c1ccc2nc(CCc3ccccc3)oc2c1)c1ccccc1 (centres undefined) 8.51%
O=C(Nc1ccc2oc(-c3cccnc3)nc2c1)c1ccc(-c2cccc(OC(F)(F)F)c2)o1 -24.9%
COc1cccc(N2CCN(C(=O)c3ccc(CS(=O)c4cccc(Cl)c4)o3)CC2)c1 (centres undefined) -37.6%
O=C(NCCc1ccc(Cl)cc1)c1ccc2c(c1)N(Cc1ccccc1)CCS2 4.65%
COc1ccc(NC(=O)c2nc(SCc3ccccc3F)ncc2Cl)cc1 0.685%
Cc1ccc(C)c(NC(=O)CCc2c(C)n(C)c3cc(-c4ccccc4C)nn3c2=O)c1 -24%
COc1ccc(NC(=O)CN(C)S(=O)(=O)c2ccc3[nH]c4c(c3c2)CCCC4)cc1OC -26.1%
CCCCOc1ccc(S(=O)(=O)n2nc(C)c(S(=O)(=O)N3CCC(C)CC3)c2C)cc1 -3.24%
Cc1ccn2c(Nc3ccc4c(c3)OCO4)c(-c3ccc(O)cc3)nc2c1 9.86%
CCCOC(=O)C(C)n1nnc2sc(-c3ccccc3)cc2c1=O (centres undefined) 2.48%
CCCCN1CCCC1C(=O)Nc1c(C)cc(C)cc1C (centres undefined) -5.34%
CCCN1CCN(c2ncnc3sc(C(=O)Nc4ccc(N(CC)CC)cc4C)c(C)c23)CC1 -26.6%
COc1cccc(CNS(=O)(=O)c2cc(Br)cc3c2N(C(C)=O)C(C)C3)c1 (centres undefined) -10.2%
O=C(CSCc1cnn(-c2ccccc2)c1-n1cccc1)NCc1ccccc1F -26.7%
COc1cccc(CC(=O)NCc2ccc3c(c2)CCN3C(C)=O)c1 19.3%
CN(C)S(=O)(=O)Nc1ccc(-c2cn3ccsc3n2)cc1 29.3%
CCc1ccccc1NC(=O)C1CCN(c2nn3c(=O)cc(C)nc3s2)CC1 -15%
Cc1cccc(Cc2cnc(NC(=O)c3ccc4c(c3)CC(c3ccccc3)OC4=O)s2)c1 (centres undefined) -21.9%
Cc1ccc2oc(C(=O)Nc3ccc(S(=O)(=O)N(C)Cc4ccccc4)cc3)cc(=O)c2c1 5.83% [at 11.5 µM, percent change from vehicle, -100% = no light]
COC(=O)c1ccccc1NC(=O)c1nc(S(=O)(=O)Cc2ccccc2F)ncc1Cl -18%
O=C(Nc1ccccc1)Nc1ccc(-c2ccc(C(=O)[C@H]3CCC[C@H]3C(=O)O)cc2)cc1 11.8%
C[C@]12CC[C@@H]3c4ccc(O)cc4CC[C@H]3[C@@H]1C[C@@H](O)[C@@H]2O -1.76%
CCc1nnc(NC(=O)c2nc(S(C)(=O)=O)ncc2Cl)s1 -84%
O=C(CSc1nc2c([nH]c3ccccc32)c(=O)n1-c1cccc(Cl)c1)N1CCc2ccccc21 -8.5%
COc1cccc(Cc2nc3ccccc3nc2SCC(=O)N2CCCCC2C)c1 (centres undefined) -38.5%
Cc1ccc2nc(NCc3ccccc3Cl)c3nnnn3c2c1 -10.1%
COc1cccc(C(=O)CN2CCN(S(=O)(=O)c3ccc(Cl)cc3)CC2)c1 -4.3%
COc1cc2ccccc2cc1C(=O)Nc1ccc2oc(-c3cc(Br)ccc3Cl)nc2c1 -5.18%
O=C(CN1C(=O)CSc2ccc(S(=O)(=O)N3CCCCC3)cc21)NCc1ccc(F)cc1Cl -21.9%
O=C(NCc1ccco1)c1ccc2c(c1)N(Cc1ccc(F)cc1)C(=O)c1ccccc1S2=O (centres undefined) -39.7%
COc1cc(NC(=O)CCc2c(C)n(C)c3cc(-c4ccccc4C)nn3c2=O)cc(OC)c1OC -5.03%
CCOc1ccccc1NC(=O)c1sc2nc3c(cc2c1N)CN(Cc1ccccc1)CC3 -15.2%
CC(C)c1ccc(C2=CC(c3cccc(Cl)c3)n3ncnc3N2)cc1 (centres undefined) -20.4%
Cc1ccc(NC(=O)CCS(=O)(=O)c2cccc3nonc23)c(C)c1 -16.7%
CCOc1ccc(NC(=O)Cn2c(CCC(=O)O)ccc2-c2ccc(Cl)cc2)cc1 -8.46%
CCCN1C(C(=O)c2ccccc2)=C(OC(=O)c2ccc(F)cc2)c2ccccc2S1(=O)=O -29.7%
Cc1ccc(C)c(Cn2c3ccccc3c3cnn(CC(=O)N4CCCCC4)c(=O)c32)c1 6.67%
O=C(OCCN1CCOCC1)c1cccnc1Nc1cccc(C(F)(F)F)c1 -15.3%
COc1ccc(Cl)cc1NC(=O)c1cc(S(=O)(=O)N2CCc3ccccc32)cn1C -17.6%
Cc1cccc(-n2c(=O)c3ccccc3n(Cc3ccccc3C#N)c2=O)c1 -17.1%
COc1cc2c(C(=O)N3CCN(c4cccc(C)c4)C(C)C3)cn(CC(C)C)c(=O)c2cc1OC (centres undefined) -19.3%
Cc1nn(CCC(=O)NC(C)C)c(=O)c2nn(-c3ccccc3)c(C)c12 -0.967%
Cc1cccc(-c2noc(-c3ccc(N4CCCC4)c([N+](=O)[O-])c3)n2)c1 -67.9%
COc1ccc(NC(=O)C2CCN(S(=O)(=O)c3c(C)noc3/C=C/c3ccco3)CC2)cc1 -22.8%
CCCCC(=O)O[C@]1(C(=O)CO)CC[C@H]2[C@@H]3CCC4=CC(=O)CC[C@]4(C)[C@H]3[C@@H](O)C[C@@]21C -15.2%
CCN(C(=O)CN(C)S(=O)(=O)c1ccc2c(c1)n(C)c(=O)c(=O)n2C)c1cccc(C)c1 -12.4%
CN(C)c1ccc(C(CNS(=O)(=O)c2cc(F)ccc2F)N2CCOCC2)cc1 (centres undefined) -7.53%
